According to the supplement of paper PMC4466236:
In all, about 33,000 sequences were measured (“E-score (dimensionless, -0.5 to 0.5)”: median about -0.058, highest 2% from about 0.35 on). The list shows a part of the results.

The sequences below were run on MvaT (assay: PBM 8-mer E-score (mean of HK and ME arrays) (E-score (dimensionless, -0.5 to 0.5)); higher = stronger relative binding preference; most listed sequences are background and not binding sites).
Summary of the method: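 Full-length P. aeruginosa MvaT carrying an N-terminal glutathione S-transferase tag was tested by protein binding microarray following a previously described protocol. Two universal double-stranded 60-mer arrays, ME and HK, were used, each with a constant 25-mer primer region and a variable 35-mer region covering all 8-mers. The rank-based E-score is the mean of the two arrays, parsed with a custom script. Its range runs from -0.5 to 0.5 for each 8-mer.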
CACGGGCC was tested, and the “PBM 8-mer E-score” value was -0.252.
With CACGACTA the “PBM 8-mer E-score” value was -0.105.
For GCTAGCCA, the “PBM 8-mer E-score” value was -0.207.
For GTTACCGA, the “PBM 8-mer E-score” value was 0.0281.
CTCTATGC was tested, and the “PBM 8-mer E-score” value was -0.1.
With TAGAACAA the “PBM 8-mer E-score” value was 0.189.
For CGAGGAGC, the “PBM 8-mer E-score” value was -0.361.
In the case of GCAACTAC, the “PBM 8-mer E-score” value was 0.157.
With CACAAACG the “PBM 8-mer E-score” value was -0.0648.
With CCGTGGAC the “PBM 8-mer E-score” value was -0.204.
With CGCGTATA the “PBM 8-mer E-score” value was 0.169.
For CGGATTAA, the “PBM 8-mer E-score” value was 0.275.
With GTCCGAAC the “PBM 8-mer E-score” value was 0.0123.
In the case of AGGGGCAC, the “PBM 8-mer E-score” value was -0.309.
CACTAGAA was tested, and the “PBM 8-mer E-score” value was -0.0936.
In the case of CGAATTTC, the “PBM 8-mer E-score” value was 0.148.
In the case of CACCTCCG, the “PBM 8-mer E-score” value was -0.176.
In the case of ATCTAGCG, the “PBM 8-mer E-score” value was -0.0807.
CCTTTGGC was tested, and the “PBM 8-mer E-score” value was -0.248.
With AGTGGACA the “PBM 8-mer E-score” value was 0.0462.
With CGGGATAA the “PBM 8-mer E-score” value was 0.109.
In the case of AGTTCAGG, the “PBM 8-mer E-score” value was 0.0672.
In the case of AGAAATTG, the “PBM 8-mer E-score” value was 0.161.
For ACGAGCAC, the “PBM 8-mer E-score” value was -0.0926.
In the case of ACCTTCAA, the “PBM 8-mer E-score” value was -0.0827.
CCATCTCA was tested, and the “PBM 8-mer E-score” value was -0.042.
For CAAGTCGC, the “PBM 8-mer E-score” value was -0.116.
AATTTTAG was tested, and the “PBM 8-mer E-score” value was 0.218.
AGTGCGGC was tested, and the “PBM 8-mer E-score” value was -0.222.
ATACGCTC was tested, and the “PBM 8-mer E-score” value was -0.054.
With CTACTCTC the “PBM 8-mer E-score” value was -0.17.
With CCATCGCA the “PBM 8-mer E-score” value was 0.0159.
In the case of GGCCTATA, the “PBM 8-mer E-score” value was -0.0174.
With CCTTTCGC the “PBM 8-mer E-score” value was -0.308.
In the case of CGTTGGTC, the “PBM 8-mer E-score” value was -0.0989.
With CGCCCGCG the “PBM 8-mer E-score” value was -0.234.
CGGGTACA was tested, and the “PBM 8-mer E-score” value was -0.0736.
For CACCGTAG, the “PBM 8-mer E-score” value was -0.184.
In the case of ACTCCTAT, the “PBM 8-mer E-score” value was 0.0892.
AAGACCCA was tested, and the “PBM 8-mer E-score” value was -0.116.
AGTGGGAT was tested, and the “PBM 8-mer E-score” value was -0.0288.
For CCTTCCCA, the “PBM 8-mer E-score” value was -0.335.
For CCAGAAGC, the “PBM 8-mer E-score” value was -0.22.
TAATCTAA was tested, and the “PBM 8-mer E-score” value was 0.292.
For GATACGGC, the “PBM 8-mer E-score” value was -0.0759.
For CTAATACA, the “PBM 8-mer E-score” value was 0.325.
AAATAACA was tested, and the “PBM 8-mer E-score” value was 0.336.
GCACACGC was tested, and the “PBM 8-mer E-score” value was -0.0844.
With CCATCAAA the “PBM 8-mer E-score” value was -0.0724.
CAGATCAA was tested, and the “PBM 8-mer E-score” value was -0.0545.
For GCCAAGCA, the “PBM 8-mer E-score” value was -0.313.
For ATAGCCCC, the “PBM 8-mer E-score” value was -0.201.
For ACGTCAGA, the “PBM 8-mer E-score” value was -0.152.
CGGTGAAG was tested, and the “PBM 8-mer E-score” value was -0.0293.
With AAGCCTTC the “PBM 8-mer E-score” value was -0.205.
CTGGACTC was tested, and the “PBM 8-mer E-score” value was -0.179.
With GTATCATA the “PBM 8-mer E-score” value was 0.134.
In the case of AGGTTCAA, the “PBM 8-mer E-score” value was -0.105.
With ATAGTAGG the “PBM 8-mer E-score” value was 0.15.
With CTTCACAC the “PBM 8-mer E-score” value was -0.0643.
With GTTGAAAC the “PBM 8-mer E-score” value was 0.144.
In the case of TGGCACAA, the “PBM 8-mer E-score” value was -0.0416.
With ATAACTGA the “PBM 8-mer E-score” value was 0.246.
With TACCTAAA the “PBM 8-mer E-score” value was 0.155.
GGGCGGAC was tested, and the “PBM 8-mer E-score” value was -0.302.
With CTGTGCGC the “PBM 8-mer E-score” value was -0.0389.
With CCATTAAC the “PBM 8-mer E-score” value was 0.0581.
In the case of AGACTCTC, the “PBM 8-mer E-score” value was -0.112.
In the case of GAGTAATA, the “PBM 8-mer E-score” value was 0.287.
With ACATTACT the “PBM 8-mer E-score” value was 0.335.
AAGAAGCC was tested, and the “PBM 8-mer E-score” value was -0.086.
For CGAGATTA, the “PBM 8-mer E-score” value was 0.302.
In the case of TCGTGGAA, the “PBM 8-mer E-score” value was 0.109.
With CCAAGAGA the “PBM 8-mer E-score” value was -0.199.
AGATGCGA was tested, and the “PBM 8-mer E-score” value was -0.108.
In the case of CTCCGGGA, the “PBM 8-mer E-score” value was -0.0338.
CATCTGCG was tested, and the “PBM 8-mer E-score” value was -0.0832.
CCGACAAG was tested, and the “PBM 8-mer E-score” value was -0.182.
ATATGTGA was tested, and the “PBM 8-mer E-score” value was 0.316.
For CCCTCTCC, the “PBM 8-mer E-score” value was -0.302.
In the case of CCAGTGGA, the “PBM 8-mer E-score” value was -0.145.
AGTTGAAA was tested, and the “PBM 8-mer E-score” value was 0.207.
With CGTTTTGA the “PBM 8-mer E-score” value was 0.0195.
With ATTTTCGC the “PBM 8-mer E-score” value was 0.0826.
CTGGCACA was tested, and the “PBM 8-mer E-score” value was -0.132.
For ATGGGATG, the “PBM 8-mer E-score” value was -0.094.
ACCTAAGG was tested, and the “PBM 8-mer E-score” value was -0.106.
In the case of GCCAGGCC, the “PBM 8-mer E-score” value was -0.312.
For AACTCAAC, the “PBM 8-mer E-score” value was 0.0196.
GTCATCAA was tested, and the “PBM 8-mer E-score” value was -0.0585.
For CAAATGAC, the “PBM 8-mer E-score” value was 0.232.
In the case of GCGTAGTA, the “PBM 8-mer E-score” value was -0.11.
For AATAGCAC, the “PBM 8-mer E-score” value was 0.113.
In the case of GCGGCACA, the “PBM 8-mer E-score” value was -0.119.
With GACCCGGC the “PBM 8-mer E-score” value was -0.246.
With AAGCGAGA the “PBM 8-mer E-score” value was -0.198.
For ACCTCGGA, the “PBM 8-mer E-score” value was -0.138.
For AGCAAACG, the “PBM 8-mer E-score” value was -0.117.
For ATGAGCGA, the “PBM 8-mer E-score” value was -0.0828.
With ATTTAACC the “PBM 8-mer E-score” value was 0.195.
In the case of GTTTAGCA, the “PBM 8-mer E-score” value was 0.0407.
In the case of TCTACAGA, the “PBM 8-mer E-score” value was 0.0213.
For CACGTTGA, the “PBM 8-mer E-score” value was -0.0691.
In the case of GGTTCGGA, the “PBM 8-mer E-score” value was -0.109.
For AGTTAGGC, the “PBM 8-mer E-score” value was 0.0261.
AACGTCAT was tested, and the “PBM 8-mer E-score” value was -0.0323.
For ACGTCCGG, the “PBM 8-mer E-score” value was -0.0895.
In the case of AGCATCAA, the “PBM 8-mer E-score” value was -0.0528.
With ACGCTGAA the “PBM 8-mer E-score” value was -0.00947.
With GGGCTTTA the “PBM 8-mer E-score” value was -0.212.
CACTTGTC was tested, and the “PBM 8-mer E-score” value was -0.0963.
In the case of AGTCCCGA, the “PBM 8-mer E-score” value was -0.0661.
For CTCGCTGC, the “PBM 8-mer E-score” value was -0.0888.
For GTCCAACA, the “PBM 8-mer E-score” value was 0.0273.
CTTATGGC was tested, and the “PBM 8-mer E-score” value was -0.104.
With AAGACCGT the “PBM 8-mer E-score” value was -0.15.
In the case of CTAGCCGA, the “PBM 8-mer E-score” value was -0.168.
For GCGCCTCC, the “PBM 8-mer E-score” value was -0.312.
TAACTCCA was tested, and the “PBM 8-mer E-score” value was 0.147.
TCTAGACA was tested, and the “PBM 8-mer E-score” value was -0.0261.
With CCGTGCGA the “PBM 8-mer E-score” value was -0.193.
CTGAAAGA was tested, and the “PBM 8-mer E-score” value was -0.0364.
ATCAACAC was tested, and the “PBM 8-mer E-score” value was -0.0437.
With CTTCATAC the “PBM 8-mer E-score” value was 0.0212.
In the case of ACATCTAG, the “PBM 8-mer E-score” value was 0.167.
In the case of AGTGGAAA, the “PBM 8-mer E-score” value was 0.0767.
For AAGCAGAC, the “PBM 8-mer E-score” value was -0.0976.
For GCCTTCGA, the “PBM 8-mer E-score” value was -0.124.
GGCAATAC was tested, and the “PBM 8-mer E-score” value was 0.0146.
With CGAGACCG the “PBM 8-mer E-score” value was -0.14.
With AACTCCTG the “PBM 8-mer E-score” value was 0.0552.
With TATCTCAA the “PBM 8-mer E-score” value was 0.121.
With AACCGATA the “PBM 8-mer E-score” value was 0.172.
In the case of GATTTGCA, the “PBM 8-mer E-score” value was 0.1.
With ACCATGGC the “PBM 8-mer E-score” value was -0.192.
For CCATCCCG, the “PBM 8-mer E-score” value was -0.318.
In the case of AAAAGATA, the “PBM 8-mer E-score” value was 0.186.
For CTTATCCA, the “PBM 8-mer E-score” value was 0.125.
GTCACACA was tested, and the “PBM 8-mer E-score” value was -0.0498.
ACTACTAT was tested, and the “PBM 8-mer E-score” value was 0.338.
With ATAGGCAT the “PBM 8-mer E-score” value was -0.0831.
With CTGTCAAA the “PBM 8-mer E-score” value was -0.0819.
For CGTGGATC, the “PBM 8-mer E-score” value was -0.132.
In the case of GATGGCGC, the “PBM 8-mer E-score” value was -0.288.
TAATTCAA was tested, and the “PBM 8-mer E-score” value was 0.346.
For GACTCGAA, the “PBM 8-mer E-score” value was -0.104.
With ACGTAAGA the “PBM 8-mer E-score” value was -0.0609.
In the case of GAGCTCTA, the “PBM 8-mer E-score” value was -0.12.
In the case of CGCCTGGA, the “PBM 8-mer E-score” value was -0.279.
For AATCAACA, the “PBM 8-mer E-score” value was 0.118.
With CTTGAGCC the “PBM 8-mer E-score” value was -0.347.
In the case of GCGAGTCC, the “PBM 8-mer E-score” value was -0.304.
For CTGTCGCC, the “PBM 8-mer E-score” value was -0.165.
For ATCGGGCC, the “PBM 8-mer E-score” value was -0.291.
In the case of CCAACCCG, the “PBM 8-mer E-score” value was -0.155.
For GGCTTGAA, the “PBM 8-mer E-score” value was -0.104.
In the case of CCACTGCA, the “PBM 8-mer E-score” value was -0.0146.
CAAGATGG was tested, and the “PBM 8-mer E-score” value was -0.0132.
CCTAGCTC was tested, and the “PBM 8-mer E-score” value was -0.133.
With TAATCGAA the “PBM 8-mer E-score” value was 0.168.
GGTTTTAA was tested, and the “PBM 8-mer E-score” value was 0.243.
For AGACCCTG, the “PBM 8-mer E-score” value was -0.261.
AACATGCA was tested, and the “PBM 8-mer E-score” value was 0.238.
GCGAAAAA was tested, and the “PBM 8-mer E-score” value was 0.176.
With AGACGGCC the “PBM 8-mer E-score” value was -0.171.
In the case of CAAATTGG, the “PBM 8-mer E-score” value was -0.0407.
For AAATGGGA, the “PBM 8-mer E-score” value was -0.0542.
With AGGGGTTA the “PBM 8-mer E-score” value was -0.0662.
GCCTTCAC was tested, and the “PBM 8-mer E-score” value was -0.138.
TCGATAAA was tested, and the “PBM 8-mer E-score” value was 0.158.
For CACTTTGG, the “PBM 8-mer E-score” value was -0.151.
In the case of CATCTAAG, the “PBM 8-mer E-score” value was 0.02.
